The results in this text go back to paper PMC6919601, “Identification of Plasmodium dipeptidyl aminopeptidase allosteric inhibitors by high throughput screening” (PLoS ONE, 2019).

In all, about 110,000 compounds went through this assay and about 230 (0.21%) showed an effect of 50% or more. This is one part of the list.
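Also: 30 min substrate incubation versus DMSO and 10 µM JCP410 controls.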

DPAP1, sequence (Q8IIJ9 whole entry, looked up): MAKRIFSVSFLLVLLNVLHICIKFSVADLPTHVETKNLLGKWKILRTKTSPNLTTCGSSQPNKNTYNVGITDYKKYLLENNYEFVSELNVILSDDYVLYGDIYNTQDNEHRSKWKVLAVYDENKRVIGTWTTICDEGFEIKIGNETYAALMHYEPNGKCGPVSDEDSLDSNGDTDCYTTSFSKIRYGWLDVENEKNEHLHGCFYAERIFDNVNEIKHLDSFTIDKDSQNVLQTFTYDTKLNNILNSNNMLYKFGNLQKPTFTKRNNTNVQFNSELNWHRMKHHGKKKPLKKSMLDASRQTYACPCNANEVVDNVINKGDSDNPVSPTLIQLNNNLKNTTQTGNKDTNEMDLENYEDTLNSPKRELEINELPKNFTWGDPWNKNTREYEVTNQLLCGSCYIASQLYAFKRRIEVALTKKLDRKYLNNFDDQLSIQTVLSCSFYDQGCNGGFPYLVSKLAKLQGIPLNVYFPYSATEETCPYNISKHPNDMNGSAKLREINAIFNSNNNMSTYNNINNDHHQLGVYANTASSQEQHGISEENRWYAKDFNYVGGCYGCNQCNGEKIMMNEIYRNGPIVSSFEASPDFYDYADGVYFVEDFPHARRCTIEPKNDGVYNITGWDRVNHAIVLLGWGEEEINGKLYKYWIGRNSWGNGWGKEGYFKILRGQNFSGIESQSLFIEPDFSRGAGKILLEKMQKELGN

The assay addresses DPAP1 (Plasmodium falciparum, UniProt Q8IIJ9). Kind of assay: primary screen, percent inhibition; read by cleavage of a fluorogenic dipeptide substrate; higher = more effect of the substance. Set-up: species or system P. falciparum D10 trophozoite lysates; single well.
Consider `COc1ccc2c(c1OC)C(=O)OC2c1ccc(O)cc1` (stereo not shown), for which the “% Inhibition @ 10 uM” value is on record as -0.687%. Then `COc1ccc(C(=N)NOC(=O)/C=C/c2ccccc2)cc1`, with -1.33%; and `COc1ccc(-c2c(C)nn3c(N4CCC(C(=O)NCC5CCCO5)CC4)cc(C)nc23)cc1OC` (stereo not shown), with -3.7%; and `Cc1cc(NC(=O)CN2CCC3(CC2)OCCO3)nc2c1c(=O)oc1ccccc12`, with -0.984%. Then `c1ccc(CN2CCN(C3CCSC3)CC2)cc1` (stereo not shown), with -2.91%; and `Cc1c(O)c2c3c(cccc3c1O)C(=O)NC2=O`, with -1.21%. Then `COc1cc(C(=O)NCc2ccccc2F)cc(OC)c1OC`, with -2.73%. For the molecule `C/N=C1\S/C(=C\c2cc(C)n(C)c2C)C(=O)N1C`, the “% Inhibition @ 10 uM” value stood at 6.3%. Then `O=C(CN1C(=O)N/C(=C\c2cccn2-c2cccc(C(=O)O)c2)C1=O)Nc1ccc(F)cc1`, with -2.03%. Then `COc1ccc(CNC(=O)C2CCN(S(C)(=O)=O)CC2)cc1`, with -0.992%; and `Cc1ccc(C2CC(=O)N=C(NC(=O)c3ccccc3)N2)cc1` (stereo not shown), with -7.48%; and `CC(=O)c1cccc(NC(=O)c2cc(-c3ccc(C)s3)nc3ccccc23)c1`, with -3.77%. Turning to `CCN(CC)c1c(S(=O)(=O)c2ccccc2)cnc2cc(OC)c(OC)cc12`, the “% Inhibition @ 10 uM” value was determined as 0.383%. Under `C=CCn1c(SCc2csc(C)n2)nc2scc(-c3ccc(C)o3)c2c1=O` stands 3.99%. Regarding `O=C(NCc1ccc(-n2cccc2)cc1)c1cccs1`, the “% Inhibition @ 10 uM” value stood at 2.99%.

With `O=C(NCCc1ccccc1)c1ccc(CNc2c(NC3CCCCC3)c(=O)c2=O)cc1`, the “% Inhibition @ 10 uM” value came out at 1.15%.

As to `COc1ccccc1C1CC(=O)NC(C)=C1C(=O)OC(C)C` (stereo not shown), the “% Inhibition @ 10 uM” value is given as -0.668%. Then `COc1ccc(CC(=O)Nc2ccccc2)cc1OC`, with -2.98%. Under `Cc1[nH]c2ccccc2c1-c1ccnc2ccccc12` stands -2.18%. Then `Cn1c(=O)c2c(ncn2CC(=O)NCc2ccc3c(c2)OCO3)n(C)c1=O`, with 3.47%; and `CCN1CCN(C(=O)c2ccc(Cn3c(SCc4ccccc4C)nc4ccncc43)cc2)CC1`, with 7.46%; and `OCCN(CCO)Cc1nc(O)c2c(n1)-c1ccccc1CC21CCCCC1`, with -0.641%. On to `C(#CCN1CCN(Cc2ccccc2)CC1)COCCOCc1ccccc1`, for which the “% Inhibition @ 10 uM” value is -0.0626%. Then `O=C(CCn1c(=O)c2cccn2c2cccnc21)N1CCc2ccccc2C1`, with 3.38%; and `Cc1ccc(NC(=O)CN2C(=O)c3ccccc3S2(=O)=O)c(C)c1`, with -2.98%. For the molecule `O=C(O)CCCN(Cc1cccc(Br)c1)S(=O)(=O)c1ccc(Br)cc1`, the “% Inhibition @ 10 uM” value was determined as 7.61%. Under `COc1ccc(C2C=C(c3ccc(Br)cc3)Nc3nc(CCCO)nn32)cc1` (stereo not shown) stands 0.205%.

In the case of `CCCCN(C)c1nc(-c2ccco2)c2c(c1C#N)CC(C)(C)OC2`, the “% Inhibition @ 10 uM” value was -3.13%. Under `O=C(O)c1cccc(C(=O)c2cccc(C(=O)O)c2)c1` stands -5.2%; under `O=S(=O)(O)c1cc(-n2nc3ccc4ccccc4c3n2)ccc1/C=C/c1ccccc1`, 44.9%. Under `Cc1ccc2[nH]c(C)c(CCNC(=O)c3c(N)no[n+]3[O-])c2c1` stands -2.41%; under `CCC(Sc1nc2cc(OC)c(OC)cc2c2nc(C)nn12)C(=O)NCc1ccco1` (stereo not shown), 1.23%; under `Cc1nnc(NC(=O)CN2C(=O)c3ccccc3S2(=O)=O)s1`, -4.85%. Regarding `N=C(NOC(=O)C12CC3CC(CC(C3)C1)C2)c1cccnc1`, the “% Inhibition @ 10 uM” value is given as -10.2%. Under `Cc1ccc(/C=C2\N=C(c3ccccc3Cl)OC2=O)cc1` stands 1.25%; under `Cc1cc(Cl)ccc1OCC(=O)Nc1sc2c(c1C(N)=O)CCCC2`, 3.8%. Then `O=C(O)c1ccc(NC(=O)c2ccc(-c3ccccc3C(F)(F)F)o2)cc1`, with 2.08%. Then `CCCNC(=O)C1CCN(c2nnc(-n3c(C)ccc3C)s2)CC1`, with -0.522%; and `Cc1ccc(C2c3c(-c4ccccc4O)n[nH]c3C(=O)N2CC2CCCO2)cc1` (stereo not shown), with -3.12%; and `Cc1cccnc1NC(=O)C(Cc1ccccc1)N1Cc2ccccc2C1=O` (stereo not shown), with -7.33%. With `CC1CC(C)(C)NC(=S)N1CC(=O)N1CCN(C2CCCCC2)CC1` (stereo not shown), the “% Inhibition @ 10 uM” value is reported as 2.84%.

In the case of `O=C(COCc1cc(-c2ccc(F)cc2)on1)Nc1ncc(Cl)cn1`, the “% Inhibition @ 10 uM” value is 1.86%.

Consider `COCC(C)NC(=O)C1CC(c2ccccc2F)=NO1` (stereo not shown), for which the “% Inhibition @ 10 uM” value is listed as 1.24%. Under `O=C(O)CCCNC(=O)Cc1ccccc1` stands -1.4%; under `COc1ccc(CNC(=O)CSc2nc(-c3ccc4c(c3)OCO4)ccc2C#N)cc1`, 3.19%. Under `Cc1c(C)c2c(cc(C)c3c(C)coc32)oc1=O` stands 0.558%; under `COc1ccc2ncc(S(=O)(=O)c3ccccc3)c(N3CCC(C(N)=O)CC3)c2c1`, 2.53%; under `COc1ccccc1/C=C/C=c1\sc2nc(-c3cccs3)nn2c1=O`, -1.52%. Under `COc1ccc2cc(C#N)c(Cl)nc2c1` stands 0.231%; under `C/C(CCc1oc2ccc(Br)cc2c1-c1ccc(C)o1)=N\NC(N)=S`, -3.41%; under `CCn1c2ccccc2c2cc(NC(C)=O)ccc21`, -6.02%. Regarding `N#Cc1c(NC(=O)CN2CCOCC2)sc2c1CCCC2`, the “% Inhibition @ 10 uM” value was -1.37%. Under `O=C(CN(Cc1ccccc1F)S(=O)(=O)c1ccc(Cl)cc1)N1CCc2ccccc2C1` stands -4.38%; under `COc1cccc(C2C(C#N)=C(N)Oc3[nH]nc(C)c32)c1` (stereo not shown), -5.14%. Under `CSc1nc(O)c2c(n1)NC(=O)CC2c1cccc(O)c1` (stereo not shown) stands 2.25%; under `O=C(NCc1ccc(Cl)cc1)c1ccc(CNc2c(N3CCCCC3)c(=O)c2=O)cc1`, 1.15%; under `COc1ccccc1CNC(=O)CN(c1ccc(C)cc1)S(=O)(=O)c1ccc(C)cc1`, 1.84%. Under `CC(NC(=O)CCCN1C(=O)c2ccccc2C1=O)c1ccc2c(c1)CCCC2` (stereo not shown) stands -13.8%; under `CCCCOc1ccc(N2C(=O)CC(N3CCN(Cc4ccccc4)CC3)C2=O)cc1` (stereo not shown), -1.79%; under `COc1ccccc1OCCn1c(S(=O)(=O)O)nc2ccccc21`, -1.69%.

`O=C(CCC(=O)Nc1ccc(Cl)cc1)Nc1ccc(Cl)cc1`: the “% Inhibition @ 10 uM” value is -5.15%.

`Cc1c(O)oc2ccccc2c1=O`: the “% Inhibition @ 10 uM” value is 0.238%.

As for `COc1cccc(C2N3CC4(C)CN2CC(C)(C3)C4)c1O` (stereo not shown), the “% Inhibition @ 10 uM” value came to 2.6%.

As to `O=C(Nc1ccc2c(c1)OCO2)c1cnccn1`, the “% Inhibition @ 10 uM” value is 3.05%.
